Reference: publication PMC4336329 (PLoS ONE, 2015)
Out of some 310,000 compounds screened, about 14,000 (4.5%) showed an effect of 50% or more. Effects have a minus sign here. The list shows a part of the results.

Biological target: human ether-à-go-go-related gene (hERG) potassium channel (human, UniProt Q12809)
Experiment: primary screen, population patch clamp on CHO cells stably expressing hERG
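Further: peak tail current of the secondary pulse compared with the same well before compound.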

Sequence of human ether-à-go-go-related gene (hERG) potassium channel (Q12809 whole entry, looked up): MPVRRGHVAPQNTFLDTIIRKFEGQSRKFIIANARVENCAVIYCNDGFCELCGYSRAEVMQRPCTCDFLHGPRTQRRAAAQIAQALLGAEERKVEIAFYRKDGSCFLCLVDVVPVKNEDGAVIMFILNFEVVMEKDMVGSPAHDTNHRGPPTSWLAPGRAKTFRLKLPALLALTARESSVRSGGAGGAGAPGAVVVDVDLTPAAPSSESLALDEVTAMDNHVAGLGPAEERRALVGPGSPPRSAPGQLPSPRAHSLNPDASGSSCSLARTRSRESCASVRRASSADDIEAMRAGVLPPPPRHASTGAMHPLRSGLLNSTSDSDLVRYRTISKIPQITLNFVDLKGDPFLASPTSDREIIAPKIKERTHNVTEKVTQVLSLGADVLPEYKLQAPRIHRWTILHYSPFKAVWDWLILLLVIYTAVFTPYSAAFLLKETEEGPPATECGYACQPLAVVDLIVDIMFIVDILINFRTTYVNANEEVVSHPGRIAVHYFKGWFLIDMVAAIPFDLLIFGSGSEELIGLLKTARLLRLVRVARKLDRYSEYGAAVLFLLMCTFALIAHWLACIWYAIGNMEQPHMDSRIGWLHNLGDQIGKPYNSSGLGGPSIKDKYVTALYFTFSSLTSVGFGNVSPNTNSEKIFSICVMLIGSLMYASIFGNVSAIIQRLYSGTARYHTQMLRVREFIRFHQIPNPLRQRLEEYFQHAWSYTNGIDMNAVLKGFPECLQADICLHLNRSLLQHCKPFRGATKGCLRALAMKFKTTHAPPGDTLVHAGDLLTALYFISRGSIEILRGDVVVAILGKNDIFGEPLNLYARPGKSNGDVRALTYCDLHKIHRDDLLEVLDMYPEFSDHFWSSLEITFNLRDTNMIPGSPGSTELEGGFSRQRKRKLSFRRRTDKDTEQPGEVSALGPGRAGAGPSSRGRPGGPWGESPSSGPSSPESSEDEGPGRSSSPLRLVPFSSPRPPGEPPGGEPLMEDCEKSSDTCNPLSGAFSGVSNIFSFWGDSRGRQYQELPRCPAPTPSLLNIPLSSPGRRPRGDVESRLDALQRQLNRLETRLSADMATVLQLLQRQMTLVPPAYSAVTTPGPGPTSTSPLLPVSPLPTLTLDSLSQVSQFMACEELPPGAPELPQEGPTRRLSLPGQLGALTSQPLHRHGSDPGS

| Structure (SMILES) | hERG current change (%, negative = inhibition) at 10uM [%] |
| --- | --- |
| Cc1cc(N2CCC(C(=O)N3CCN(c4cccc(C)c4C)CC3)CC2)n2ncnc2n1 | -68.7 |
| c1ccc2c(-c3cn4ccccc4n3)c[nH]c2c1 | -5.76 |
| CCc1c(C)sc(NC(=O)Cn2nc(C)c([N+](=O)[O-])c2C)c1C(N)=O | 15.5 |
| CC1CCCCN1C(=O)CN1C(=O)c2ccccc2S1(=O)=O (stereo not shown) | 3.43 |
| Cc1ccc(Cn2c(=O)sc3ccccc3c2=O)cc1 | 13.5 |
| NNC(=O)c1c(O)c2cccc3c2n(c1=O)CCC3 | 22.4 |
| O=C(Nc1cccc(O)c1)c1cccc(C(=O)Nc2cccc(O)c2)c1 | 18.7 |
| COc1ccc(-c2cc(C(F)(F)F)nc(SCC(=O)NCc3cnn(C)c3C)n2)cc1OC | -2.05 |
| O=C(CCn1c(=O)oc2ccccc21)Nc1cccc([N+](=O)[O-])c1 | 6.68 |
| Cc1ccn2cc(-c3cnoc3C)nc2c1 | 6.49 |
| Cc1cc(O)c(NC(=O)c2ccc(C)c([N+](=O)[O-])c2)cc1C | 9.3 |
| Cc1ccc(N(CC(=O)Nc2ccc(F)cc2)S(=O)(=O)N2CCCC2)cc1 | -27.1 |
| Fc1cc(Br)cc(F)c1NC(=S)N1CCOCC1 | 6.42 |
| COC(=O)c1cc(Br)ccc1N(Cc1cc(OC)cc(OC)c1)S(C)(=O)=O | -9.66 |
| O=C(NNc1nc2c(F)cccc2s1)C1=COCCO1 | 20 |
| Nc1ccccc1C(=O)N(Cc1ccccc1)Cc1ccccc1 | 3.55 |
| CN(NC(=O)c1ccccc1)c1nc2ccccc2nc1C(F)(F)F | -3.6 |
| Cc1ccc2[nH]c(C(=O)Nc3ccc(F)cc3)cc2c1 | 13 |
| O=S(=O)(NN1CCOCC1)c1cc(Cl)cc(Cl)c1O | 14.1 |
| Cc1cc(C(=O)CCC(=O)N2CCN(c3ccccc3O)CC2)c(C)s1 | -1.8 |
| O=C(Nc1nnc(Cc2ccccc2)s1)C1CCC1 | 10.9 |
| Cc1nn(C)cc1CN(C)C(=O)c1cc(-c2ccccc2)nc2ccc(Br)cc12 | -4 |
| COc1ccc([C@H]2CC(=O)C=C(c3cc4ccccc4s3)C2)cc1 | -1.66 |
| COc1ccc(/C=N/NC(=O)Nc2ccc3nsnc3c2)c(OC)c1 | 5.51 |
| Nc1ccc2nc(SCc3cccc(F)c3)sc2c1 | 10.5 |
| CCc1ccccc1NC(=O)C1=CC(c2ccc(OC)c(OC)c2)=NS(=O)(=O)N1C | 15.2 |
| CN(Cc1cnccn1)C(=O)C1CCC(=O)N(CCc2ccc(Cl)cc2)C1 (stereo not shown) | -67.9 |
| COc1ccc(C(CNC(=O)c2cccc(S(=O)(=O)N3CCCCC3)c2)N2CCCC2)cc1 (stereo not shown) | -43.8 |

| Structure (SMILES) | hERG current change (%, negative = inhibition) at 10uM [%] |
| --- | --- |
| CN(CC(=O)NCc1ccco1)S(=O)(=O)c1ccc2c(c1)c(=O)n(C)c(=O)n2C | -11.7 |
| COC(=O)c1ccc2nc(C)cc(Nc3ccccc3C)c2c1.Cl | -47.5 |
| CCc1noc(C)c1C(=O)N(C)CC(=O)Nc1ccc(F)c(F)c1F | 17.4 |
| COc1ccc(OC)c(NC(=O)COC(=O)C2CCN(C(=O)c3ccc(Cl)cc3)CC2)c1 | -71.1 |
| COc1ccccc1CCC(=O)NNC(=O)c1ccc(Br)cc1 | 11.2 |
| Cc1cccc(NC(=O)c2sc(NC(=O)COc3ccccc3)c(C#N)c2C)c1C | 14.6 |
| FC(F)(F)c1ccc(/C=N/NC(=S)NC2CCCCC2)cc1 | -13.6 |
| CCn1cc(C(=O)O)c(=O)c2cnc(N3CCN(C(=S)NC(=O)c4ccc(Cl)cc4)CC3)nc21 | -1.52 |
| [C-]#[N+][C@H](O[C@@H]1O[C@H](CO)[C@@H](O)[C@H](O)[C@H]1O)c1ccccc1 | -7.77 |
| CC(=O)OCC(=O)NCC(=O)c1c[nH]c2ccccc12 | 16.9 |
| O=C([O-])c1ccc(-n2nc(C(F)(F)F)c3c2CCCC3)cc1.[K+] | 12.3 |
| O=C(Nc1ccccc1C(=O)OCC(=O)c1c[nH]c2ccccc12)c1ccco1 | -5.98 |
| Cn1ccnc1SCC(=O)Nc1ccc(Br)cc1C(F)(F)F | 8.6 |
| CCOC(=O)C(C#N)C(Cc1ccccc1)c1ccco1 (stereo not shown) | -10 |
| C=CCNC(=S)NNC(=O)c1csc(C)c1C | 15.7 |
| O=S(=O)(Cc1ccccc1)/C1=C(\N2CCOCC2)CCCCCC1 | -11 |
| C[C@H](CO)NC(=O)[C@H](C)[C@@H]1C[C@@]1(C)[C@@H](NC(=O)OCc1ccccc1)c1ccccc1 | -19.1 |
| CCCN1CCCc2cc(CN)ccc21.O=C(O)C(=O)O | -12.9 |
| Cn1c2ccccc2c2c(C(=O)NCCCN3CCCC3=O)cn(C3CCCCC3)c(=O)c21 | 1.44 |
| COc1ccc(NS(=O)(=O)c2cc(NC(=O)c3cccc(OCc4c(C)noc4C)c3)ccc2OC)cc1 | 12.9 |
| CCN1C(=O)[C@H]2[C@@H](c3ccc(C)cc3)N3C(=O)N(c4cccc(Br)c4)C(=O)[C@@]3(Cc3ccccc3)[C@H]2C1=O | 10.9 |
| O=C(O)c1ccc(Cn2cc(C(F)(F)F)ccc2=O)cc1 | 21.8 |
| CCC(C)N1CCN(C(=O)C2CCN(S(=O)(=O)c3c(C)noc3/C=C/c3ccco3)CC2)CC1 (stereo not shown) | -12.9 |
| CN(C(=O)CSc1nnc2ccccn12)C1CCS(=O)(=O)C1 (stereo not shown) | 10.4 |
| CCOc1ccc(-c2ncncc2-c2ccc(OC)c(OC)c2)c(O)c1 | -20.7 |
| COCCCNc1nc2c(c(=O)n(C)c(=O)n2C)n1Cc1cccc(OC)c1 | 8.96 |
| Cc1ccccc1N1C(=O)NC(=O)/C(=C\c2cnn(-c3ccccc3)c2)C1=O | 10.3 |
